From publication PMC5836133
The other results are listed elsewhere or left out. At the low end of the ranking, values are background and their order means little.

System: T1, GST-NbGlk1(82-244)
T1 sequence: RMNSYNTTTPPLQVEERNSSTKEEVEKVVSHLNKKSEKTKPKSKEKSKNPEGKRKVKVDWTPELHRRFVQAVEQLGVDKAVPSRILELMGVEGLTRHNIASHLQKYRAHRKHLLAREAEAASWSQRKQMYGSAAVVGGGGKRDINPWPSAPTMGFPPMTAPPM
Assay: protein-binding microarray;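 note: rank-based score ranging −0.5 to +0.5 with E above 0.45 taken as significant binding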
Settings: NbGlk1 is a Golden2-like transcription factor of Nicotiana benthamiana; high values mean tight binding; most listed sequences are background and not binding sites; double strand, one strand shown

| Sequence | binding signal [E-score] |
| --- | --- |
| ACCATTAC | 0.0188 |
| ACCACAAA | -0.0279 |
| AACGCTCC | -0.052 |
| AACTACGG | -0.083 |
| AGATCAAA | 0.133 |
| ACATGAAA | 0.129 |
| CAAGACTA | -0.0256 |
| AAGGCCAT | -0.0684 |
| ATACTGGG | -0.0274 |
| ATGGCCAT | -0.128 |
| AAGGCGAC | -0.283 |
| ACTTGGTC | -0.155 |
| ACGCAAAT | 0.176 |
| AATCAAGG | 0.258 |
| ACACCACC | -0.0727 |
| AGATAACG | 0.119 |
| AGAGGGCT | -0.282 |
| AAGAATGT | 0.00487 |
| AAAGCACT | -0.163 |
| AGCACTTC | -0.114 |
| AAAAATCC | 0.437 |
| ATGCAATG | -0.0993 |
| ACGTTGTC | -0.129 |
| ATCAGACA | 0.136 |
| AGGCCCCA | -0.334 |

| Sequence | binding signal [E-score] |
| --- | --- |
| ATGTCGTG | -0.0169 |
| CAAAGGGA | -0.1 |
| AAGCGGCG | -0.129 |
| ACAAGATG | -0.0534 |
| AAGAAAGT | 0.0744 |
| ACACGCCA | -0.211 |
| AGAATTAC | 0.23 |
| AGGACAGC | -0.14 |
| ATCAGACG | -0.00462 |
| ACGCCCCA | -0.175 |
| AGAAAAGA | 0.164 |
| CAGCATCC | -0.0849 |
| ACATGCAA | 0.141 |
| AACAACAC | -0.146 |
| ACGTGAAC | 0.0124 |
| AGGAGACC | -0.3 |
| CACCATCG | -0.144 |
| ATACGAAA | 0.276 |
| AACCCCGA | -0.0991 |
| ACCTATCA | -0.0396 |
| ACTAAAAC | 0.0428 |
| ACTATTCC | 0.0219 |
| ATATAATG | 0.147 |
| ACCCTTAC | -0.153 |
| ACAAGGCA | -0.15 |

| Sequence | binding signal [E-score] |
| --- | --- |
| AACCACGT | -0.0832 |
| AAATCGAA | 0.329 |
| AGGTTGCC | -0.271 |
| ACCCATAA | 0.104 |
| AGGTCCTG | -0.238 |
| CAAATGCG | -0.00184 |
| ACGCAGCA | -0.125 |
| ACCATTCG | -0.131 |
| AAACGAGT | -0.0518 |
| AATAAGGC | 0.126 |
| ACTCCTTG | -0.17 |
| ACCGGAGG | -0.22 |
| ACAGATGG | -0.121 |
| CAAGAAAC | -0.0207 |
| AGCAAAAG | -0.0263 |
| AGCTTATA | 0.0323 |
| AACCCAGT | -0.165 |
| AATGTTGA | 0.0497 |
| AATGGCTG | -0.229 |
| AAACGCGA | 0.106 |
| CACCCCCG | -0.143 |
| CACCAAGA | 0.0698 |
| AACCCTGG | -0.258 |
| AGCTCCAC | -0.228 |
| AAACTCCG | -0.155 |

| Sequence | binding signal [E-score] |
| --- | --- |
| ATACACTC | 0.0183 |
| AATGCTTA | -0.0563 |
| ATATGGGG | 0.0536 |
| ACCACTTA | -0.0325 |
| CACTACGC | -0.166 |
| AGACGCGC | -0.155 |
| CAGCCAAG | 0.00384 |
| ATACCTGC | 0.0322 |
| ACCAGTAA | -0.0209 |
| CAACCGGC | -0.174 |
| AGCTTCTC | -0.145 |
| AAGAGACG | -0.246 |
| AGCATTCC | -0.186 |
| ATCGCCGA | 0.202 |
| ATTAAAGG | -0.0563 |
| AGGGTTCG | -0.312 |
| ACGAGGTG | -0.1 |
| AAGGGCGC | -0.164 |
| ACTACGTC | -0.0994 |
| AACAAGCT | -0.147 |
| ATGTCCAC | 0.0171 |
| AGTAGATG | 0.0733 |
| CACGAAGC | -0.154 |
| AATATACT | 0.222 |
| AAGTGGAG | -0.22 |

| Sequence | binding signal [E-score] |
| --- | --- |
| ACGTCAGT | -0.199 |
| AGGAAGGG | -0.214 |
| ACGAGGGC | -0.247 |
| AGGTTTAC | -0.163 |
| AGAAGCGC | -0.197 |
| AAAGTCGA | -0.000562 |
| AGTGGGGA | -0.154 |
| AATCTTCG | 0.404 |
| ACTAATCT | 0.0571 |
| AGCCAGTG | -0.218 |
| AGCGTATG | 0.0231 |
| AGACTCGA | -0.174 |
| ATGCTAAC | -0.0521 |
| AAGGCTGT | -0.295 |
| ACGCTGCT | -0.0365 |
| ACGTAAGA | 0.08 |
| ACCAACGA | -0.0707 |
| ACACGAAA | 0.16 |
| AGAAGGGA | -0.0546 |
| ATCACGTG | 0.196 |
| ATTGCGGG | 0.26 |
| AACAAGGA | 0.00345 |
| ATCGCGTC | 0.285 |
| ATCTCGGG | 0.242 |
| AAGCTTGC | -0.0998 |

| Sequence | binding signal [E-score] |
| --- | --- |
| ACAGCTTG | -0.215 |
| ACCCTTCG | -0.213 |
| AATATCGA | 0.326 |
| AAGCTCCA | -0.203 |
| AGGTTCTA | -0.116 |
| AGACTCAT | -0.0737 |
| ACCCACAA | -0.0311 |
| ACGATGAC | -0.0642 |
| AAATCGTT | 0.248 |
| ATAAGGGG | -0.164 |
| AGAGTACA | -0.0623 |
| ATTCATAA | 0.155 |
| AGTCAATG | -0.222 |
| AAAACCTC | -0.111 |
| ACCAAAAT | 0.245 |
| AGGCCAAT | -0.105 |
| ACCGCGTG | -0.194 |
| ACTCAGGG | -0.194 |
| AATCCTCG | 0.345 |
| AGCGGGTC | -0.225 |
| ACCTATGG | -0.172 |
| ATGCCTGA | 0.0134 |
| AAAAACTG | -0.0658 |
| ACTCCTGC | -0.272 |
| ACGCAACT | 0.0194 |

| Sequence | binding signal [E-score] |
| --- | --- |
| ATCAGGAG | 0.0761 |
| ACTCTAAT | 0.138 |
| AACCGATC | 0.0318 |
| AGGTAGAC | -0.19 |
| AGCTGTTC | -0.00371 |
| CAAGAGCC | -0.135 |
| ACCGGCCC | -0.317 |
| ATCTGTCA | 0.145 |
| AGCCACCC | -0.252 |
| ATAACTCA | 0.0337 |
| AAGGTTAA | -0.00675 |
| ACCTCCAC | -0.26 |
| ACCTCCGG | -0.219 |
| ATTCCCTC | 0.372 |
| AGGATTGG | 0.0414 |
| AGCGAAGG | -0.309 |
| ACTTACCG | -0.116 |
| AAACCTGA | 0.00404 |
| CACCGCTG | -0.239 |
| CACTACGG | -0.0209 |
| AGTAATAG | -0.0642 |
| CAAGCACG | -0.114 |
